US11413324B2, “Compositions and methods for treating peripheral nerve disease, disorders, and injuries” (University of Virginia Patent Foundation, priority 2017, dated 2022)

Tests used:
[1] = tested on: dorsal spinal cord olig2^+ OPCs; experiment: Quantification of dorsal spinal cord olig2+ OPCs in a 4-somite region; conditions: treatment alone, 24 to 72 hpf, vs DMSO, p=0.23
peripheral olig2^+ OPCs = experiment: Quantification of peripheral olig2+ OPCs at 3 dpf in drug-treated olig2:dsred larvae; type: in vivo, zebrafish; conditions: counted at 3 dpf

Row | Compound | dorsal spinal cord olig2+ OPCs in a 4-somite region [1] | number of peripheral OPCs when co-administered with SCH-58261 (peripheral olig2^+ OPCs; 2.5 μM with 10 μM SCH-58261, from 24 hpf, p<0.05 vs SCH-58261 alone) | number of peripheral OPCs when co-administered with SCH-58261 (peripheral olig2^+ OPCs; 5 μM with 10 μM SCH-58261, from 24 hpf, p<0.01 vs SCH-58261 alone)
1 | CCNC(=O)[C@H]1O[C@@H](n2cnc3c(N)nc(NCCc4ccc(CCC(=O)O)cc4)nc32)[C@H](O)[C@@H]1O [CGS-21680] | did not observe any differences | significantly decreased | 
2 | Nc1ncnc2c1ncn2[C@@H]1O[C@H](CO)[C@@H](O)[C@H]1O [adenosine] | did not observe any differences |  | significantly decreased
